Assay results as given in the supplement of paper PMC9446081.
In all, about 39,000 compounds went through this assay and about 220 (0.56%) showed activity. This is one part of the list.

What follows are compounds tested on Escherichia coli K-12 BW25113 (assay: relative growth (OD600 normalised to plate interquartile mean) (fraction); higher = less growth inhibition, active = 0.2 or less). Conditions: 50 µM; LB; incubation time: overnight (16-24 h).
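Also: static incubation at 37 °C against the wild-type strain, values averaged over two biological replicates.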

SMILES	relative growth
COc1ccc(C=Cc2cc(O)cc(O[C@@H]3O[C@H](CO)[C@@H](O)[C@H](O)[C@H]3O)c2)cc1	inactive: 0.972
COc1ccc(CN(C)C[C@@H]2OCCCC[C@@H](C)Oc3ccc(NC(=O)Nc4ccc(C(F)(F)F)cc4)cc3C(=O)N([C@H](C)CO)C[C@H]2C)cc1	inactive: 1
CC(=O)Nc1ccc(C(=O)NN)cc1	inactive: 0.985
COc1cccc(S(=O)(=O)N(C)C[C@@H]2Oc3ncc(C#CC(C)(C)O)cc3C(=O)N([C@H](C)CO)C[C@@H]2C)c1	inactive: 0.992
O=C(CN1CCOCC1)NCC[C@@H]1CC[C@@H](NC(=O)Nc2ccccc2)[C@H](CO)O1	inactive: 1.01
Cc1noc(C)c1S(=O)(=O)Nc1ccc2c(c1)CC(=O)N([C@H](C)CO)C[C@H](C)[C@@H](CN(C)S(=O)(=O)c1ccccc1)O2	inactive: 0.998
CN(C)C[C@@]12COC[C@H]1CN(C(=O)N(C)C)C2	inactive: 0.99
COc1ccc(CN(C)C[C@H]2Oc3ccc(NC(=O)CCCCCC(=O)Nc4ccccc4N)cc3C(=O)N([C@H](C)CO)C[C@H]2C)cc1	inactive: 1
C[C@@H]1CN([C@H](C)CO)C(=O)c2cc(NC(=O)CCN3CCOCC3)ccc2O[C@H]1CN(C)S(=O)(=O)c1ccccc1	inactive: 1.01
CCC(=O)OC1C(OC2C(C)C(OC3CC(C)(OC)C(O)C(C)O3)C(C)C(=O)OC(CC)C(C)(O)C(O)C(C)C(=O)C(C)CC2(C)O)OC(C)CC1N(C)C.CCCCCCCCCCCCOS(=O)(=O)O (centres undefined)	inactive: 0.953
NC(=O)C1CCNCC1	inactive: 1.01
CC(=O)NS(=O)(=O)c1ccccc1	inactive: 0.98
C[C@@H]1CCCCO[C@@H](CN(C)C(=O)c2ccccc2)[C@H](C)CN([C@@H](C)CO)C(=O)c2cc(NC(=O)Nc3ccc(C(F)(F)F)cc3)ccc2O1	inactive: 1.06
COc1ccc(NC(=O)Nc2ccc3c(c2)C(=O)N([C@H](C)CO)C[C@H](C)[C@@H](CN(C)C(=O)Nc2cccc4ccccc24)OCCCC[C@@H](C)O3)cc1	inactive: 1.02
C[C@@H]1CCCCO[C@@H](CN(C)C(=O)Nc2ccc(C(F)(F)F)cc2)[C@H](C)CN([C@@H](C)CO)C(=O)c2cc(NS(=O)(=O)c3ccccc3)ccc2O1	inactive: 1.02
CN1CCN(C(=O)C[C@@H]2CC[C@@H]3[C@H](COC[C@H](O)CN3CC3CCCC3)O2)CC1	inactive: 0.975
C[C@H]1CN([C@@H](C)CO)C(=O)c2cccc(NC(=O)Nc3ccccc3)c2O[C@@H]1CN(C)S(C)(=O)=O	inactive: 0.991
C[C@H](CO)N1C[C@H](C)[C@@H](CN(C)Cc2ccc3c(c2)OCO3)OCCCC[C@H](C)Oc2ccc(NC(=O)Cc3ccccc3)cc2C1=O	inactive: 0.979
Cc1ccc(S(=O)(=O)Nc2ccc3c(c2)C(=O)N([C@H](C)CO)C[C@@H](C)[C@H](CN(C)CC2CC2)O3)cc1	inactive: 1.03
O=C(C[C@H]1CC[C@@H]2[C@H](COC[C@H](O)CN2S(=O)(=O)c2ccccc2)O1)N1CCOCC1	inactive: 0.999

SMILES	relative growth
C[C@H]1CCCCO[C@H](CN(C)S(=O)(=O)c2ccc(F)cc2)[C@@H](C)CN([C@@H](C)CO)C(=O)c2cc(NC(=O)Cc3ccccc3)ccc2O1	inactive: 1.01
Cc1ccc(S(=O)(=O)N(C)C[C@H]2Oc3c(NC(=O)c4ccncc4)cccc3C(=O)N([C@H](C)CO)C[C@H]2C)cc1	inactive: 0.832
C[C@H]1CCCCO[C@@H](CN(C)C(=O)Nc2ccccc2)[C@@H](C)CN([C@@H](C)CO)C(=O)c2cc(NC(=O)NC3CCCCC3)ccc2O1	inactive: 0.995
C[C@@H]1CN([C@H](C)CO)C(=O)c2cc(NC(=O)Nc3ccc(C(F)(F)F)cc3)ccc2O[C@H]1CN(C)S(=O)(=O)c1ccc(Cl)cc1	inactive: 0.997
Cc1ccc(-c2ccc3c(c2)O[C@@H](CN(C)C(=O)Nc2ccc(C(F)(F)F)cc2)[C@@H](C)CN([C@H](C)CO)S3(=O)=O)cc1	inactive: 1.03
C[C@@H]1CCCCO[C@@H](CN(C)C(=O)Nc2ccccc2)[C@@H](C)CN([C@@H](C)CO)C(=O)c2cc(NS(=O)(=O)c3ccccc3)ccc2O1	inactive: 0.929
C[C@H](CO)N1C[C@H](C)[C@@H](CN(C)S(=O)(=O)c2ccccc2)OCCCC[C@H](C)Oc2ccc(NC(=O)Nc3ccc(F)cc3)cc2C1=O	inactive: 1.04
C[C@H]1CCCCO[C@H](CN(C)C(=O)Nc2cccc3ccccc23)[C@@H](C)CN([C@@H](C)CO)C(=O)c2cc(NC(=O)Nc3ccc4c(c3)OCO4)ccc2O1	inactive: 1.01
C[C@@H]1CCCCO[C@@H](CN(C)C)[C@H](C)CN([C@@H](C)CO)C(=O)c2cc(NC(=O)CCCN(C)C)ccc2O1	inactive: 1.02
COc1cccc(S(=O)(=O)Nc2ccc3c(c2)[C@@H]2C[C@H](CC(=O)NCCc4ccccc4)O[C@H](CO)[C@@H]2O3)c1	inactive: 0.963
CCS(=O)(=O)N1CC[C@]2(CC1)CN([C@@H](CO)c1c2c2ccc(cc2n1C)OC)C(=O)CN1CCOCC1	inactive: 0.979
COc1cccc(c1)CN1C[C@]2(CCN(CC2)S(=O)(=O)C)c2c(n(c3cc(ccc23)OC)C)[C@H]1CO	inactive: 1.02
Cl.NCCc1ccc(O)c(O)c1	inactive: 1.02
C[C@H](CO)N1C[C@H](C)[C@H](CN(C)C(=O)c2ccncc2)Oc2cc(C#C[C@@H](C)O)ccc2S1(=O)=O	inactive: 0.999
C[C@@H]1CN([C@@H](C)CO)C(=O)c2cc(NC(=O)CCC(F)(F)F)ccc2O[C@@H](C)CCCCO[C@H]1CN(C)S(=O)(=O)c1cccs1	inactive: 0.999
C[C@@H]1CN([C@@H](C)CO)C(=O)c2cc(Br)cnc2O[C@H]1CN(C)C(=O)Nc1ccc(F)cc1	inactive: 1.01
COc1ccc(cc1)CN1C[C@]2(CN(C2)C(=O)C2CCOCC2)c2c(n(c3cc(ccc23)OC)C)[C@@H]1CO	inactive: 0.999
CC(C)NC(=O)[C@@]1(c2ccc([N+](=O)[O-])cc2)CC(=O)N(CC23CC4CC(CC(C4)C2)C3)[C@@H]1c1ccc(CO)cc1I	inactive: 1.03
COc1ccc2c3c([nH]c2c1)[C@@H](CO)N(CC1CCCC1)C[C@]13CCN(CC1)C(=O)c1ccc(cc1)F	inactive: 0.976
CC1=C(/C=C/C(C)=C/C=C/C(C)=C/C=C/C=C(C)/C=C/C=C(C)/C=C/C2=C(C)CCCC2(C)C)C(C)(C)CCC1	inactive: 0.988

SMILES	relative growth
O=C(C[C@H]1C[C@H]2c3cc(NS(=O)(=O)c4ccc(F)cc4)ccc3O[C@H]2[C@@H](CO)O1)NCC(F)(F)F	inactive: 1
C[C@H](CO)N1C[C@H](C)[C@H](CN(C)Cc2ccncc2)Oc2c(NC(=O)C3CCOCC3)cccc2C1=O	inactive: 1.01
CCS(=O)(=O)N1CC[C@]2(CC1)CN([C@@H](CO)c1c2c2ccc(cc2n1C)OC)S(=O)(=O)c1ccccc1	inactive: 1
C=CCNc1ncnc2c1cnn2C	inactive: 1
CCOC(=O)[C@H]1CN(C(C)(C)C)C(=O)C1=O	inactive: 1.01
O=C(C[C@H]1CC[C@H]2[C@@H](COC[C@H](O)CN2S(=O)(=O)c2ccccc2)O1)N1CCOCC1	inactive: 0.991
COc1ccc(CN(C)C[C@@H]2OCCCC[C@@H](C)Oc3ccc(NS(=O)(=O)c4ccc(Cl)cc4)cc3C(=O)N([C@H](C)CO)C[C@@H]2C)cc1	inactive: 0.995
C[C@H](CO)N1C[C@H](C)[C@H](CN(C)S(=O)(=O)c2ccc(Cl)cc2)OCCCC[C@H](C)Oc2ccc(NC(=O)NC3CCCCC3)cc2C1=O	inactive: 1.02
CCOc1nc2cccc(C(=O)OCc3oc(=O)oc3C)c2n1Cc1ccc(-c2ccccc2-c2noc([O-])n2)cc1.[K+]	inactive: 1.17
C[C@H](CO)N1C[C@H](C)[C@@H](CN(C)Cc2ccc(C(=O)O)cc2)OCCCC[C@H](C)Oc2ccc(NS(=O)(=O)c3ccc(Cl)cc3)cc2C1=O	inactive: 1.01
Cc1c(O[C@@H]2O[C@H](COC(=O)C[C@@](C)(O)CC(=O)O)C[C@H](O)[C@H]2O)occc1=O	inactive: 0.996
Cc1ccc(S(=O)(=O)Nc2ccc3c(c2)C(=O)N([C@H](C)CO)C[C@H](C)[C@@H](CN(C)C(=O)Nc2ccc4c(c2)OCO4)OCCCC[C@@H](C)O3)cc1	inactive: 1.06
C[C@H](CO)N1C[C@H](C)[C@@H](CN(C)Cc2ccc(Cl)c(Cl)c2)OCCCC[C@H](C)Oc2ccc(NC(=O)C3CCCCC3)cc2C1=O	inactive: 1.02
CCC(=O)Nc1ccc2c(c1)C(=O)N(C)C[C@H](OC)[C@H](C)CN(C(=O)CN1CCOCC1)[C@@H](C)CO2	inactive: 1.01
CO[C@@H]1CN(C)C(=O)c2ccc(NC(=O)C3CC3)cc2OC[C@H](C)N(C(=O)C2CCOCC2)C[C@@H]1C	inactive: 1
CC(C)(C)c1cc(NC(=O)Nc2ccc(Oc3ccnc4nc(O)cnc34)cc2F)n(-c2ccccc2)n1	inactive: 0.916
Cc1ccc(S(=O)(=O)Nc2ccc3c(c2)C(=O)N([C@H](C)CO)C[C@H](C)[C@H](CN(C)S(=O)(=O)c2ccc(C)cc2)OCCCC[C@H](C)O3)cc1	inactive: 1.03
Cc1noc(C)c1NC(=O)N(C)C[C@@H]1Oc2ccc(NS(=O)(=O)c3c(C)noc3C)cc2CC(=O)N([C@H](C)CO)C[C@H]1C	inactive: 0.985
O=C(C[C@@H]1CC[C@H]2[C@@H](COC[C@@H](O)CN2S(=O)(=O)c2ccc(F)cc2)O1)N[C@@H]1CCN(Cc2ccccc2)C1	inactive: 0.989
